Several values for one entry are separate records, joined by “and”; a condition that tells them apart may be missing. Identical values can stand only once.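 Values below derive from 48-hour exposures of cells grown in 96-well plates, with endpoints linearly interpolated between the two concentrations bracketing the appropriate inhibition level. GI50 marks 50% less growth. TGI: concentration producing complete growth inhibition.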
What follows are compounds tested on NCI-H322M lung (assay: NCI anticancer screen, dose series, 48 h).

Row | Structure (SMILES) | GI50 | TGI
1 | CN1CCCC1c1cccnc1.O=C(O)c1ccccc1O.O=C([O-])c1ccccc1[OH2+].O=C([O-])c1ccccc1[OH2+].O=C([O-])c1ccccc1[OH2+].[Mn+2] (stereo not drawn) | > 100 µM | > 100 µM
2 | c1ccc2c(c1)nc(NCCN1CCNCC1)c1c3ccccc3[nH]c21 | 0.4 µM | 2.59 µM
3 | CC(=O)N[C@@H](Cc1ccc(O)cn1)C(=O)NCc1ccc2c(c1)OCO2 |  | > 100 µM
4 | O=c1c2ccccc2nc(-c2ccccc2)n1NCC1(O)OCC(O)C(O)C1O (stereo not drawn) |  | > 100 µM
5 | O=C1c2ccccc2NC2C(O)c3ccccc3N12 (stereo not drawn) |  | > 100 µM
6 | COc1cc(C(c2cc3c(cc2O)OCO3)N2CCCC2)cc(OC)c1OC (stereo not drawn) |  | > 100 µM
7 | O=C1CSC2(CC(/C=C/C=C/c3ccccc3)=NN2c2cccc(S(=O)(=O)O)c2)N1c1nc2ccccc2s1 (stereo not drawn) |  | > 100 µM
8 | Cn1c(N)c(/C=N/NC(=O)CC#N)c(=O)n(C)c1=O |  | > 100 µM
9 | CC1OC(=O)N(CCCC=C2SCCCS2)C1=O (stereo not drawn) |  | > 100 µM
10 | COc1ccccc1Cn1cc2c(c1)-c1oncc1CC2 | 0.493 µM | > 84.5 µM
11 | COc1ccc2c(c1O)[C@@]13C=C(O)C(=O)C=C1[C@@H](C2)N(C)CC3 |  | > 100 µM
12 | COc1ccc(Cn2nc(OCc3ccccn3)c3cc([N+](=O)[O-])ccc32)cc1 |  | > 100 µM
13 | Oc1cccc(-c2nc3ccccc3s2)c1 |  | > 100 µM
14 | COc1ccc(C(=O)Cc2cc(OC)ccc2OC)cc1 |  | > 100 µM
15 | CCOC(=O)c1cc(-c2ccc(OC)c(OC)c2)c[nH]1 |  | > 10 µM
16 | O=C1/C(=C/c2cccc(Oc3ccccc3)c2)N=C(c2ccccc2)N1c1nc2ccc(Sc3ccccc3)cc2[nH]1 |  | > 100 µM
17 | C=C[C@]1(C)CC[C@]2(C)C(CC[C@@]3(C)C2C[C@H](O)[C@H](O)[C@@]3(C)O)C1 (stereo partly drawn) |  | > 100 µM
18 | CCCCC[C@H](O)[C@H](C)C=C1SCCCS1 |  | > 100 µM
19 | C/C(=C(/c1ccc(O)cc1)c1ccc(OCCN2CCCC2)cc1)c1ccccc1 | 5.12 µM | 18.6 µM
20 | O=C(Oc1c(I)ccccc1=O)c1ccc([N+](=O)[O-])cc1 |  | > 100 µM
21 | COC(=O)[C@H](Cc1ccccc1)NC(=O)c1csc([C@@H](C[C@H](C(C)C)N(C)C(=O)[C@@H](NC(=O)[C@H]2CCCCN2C)C2CC2)OC(C)=O)n1 | 0.151 µM | > 25 µM
22 | O=C(OCc1ccccc1CN1CCOCC1)c1ccc(Br)cc1 |  | > 100 µM
23 | O=C(CCCCCCCCCCc1ccccc1)c1c(O)cccc1O |  | 96.3 µM
24 | Cc1ccc([P+](Cc2ccc([N+](=O)[O-])cc2)(c2ccc(C)cc2)c2ccc(C)cc2)cc1 | 12.2 µM | 27 µM
25 | Cc1nn(-c2ccccc2)c2c1C1C(=C(c3ccc(Cl)cc3)N2)C(=O)Nc2ccccc21 (stereo not drawn) | 3.14 µM | > 100 µM

Row | Structure (SMILES) | GI50 | TGI
26 | O=C1NC(=O)/C(=C\c2ccncc2)N1 |  | > 100 µM
27 | COc1ccc2nc3ccc(OC)cc3c(SCCCN)c2c1 | 13.3 µM | 27.6 µM
28 | NC(Cc1nn[nH]n1)C(=O)O (stereo not drawn) |  | > 100 µM
29 | CCOC(=O)CCC(NC(=O)OCc1ccccc1)C(=O)NNC(=O)OC(C)(C)C (stereo not drawn) |  | > 100 µM
30 | CC1CN=C(c2cccc(OCc3ccc(COc4cccc(C5=NCC(C)N5)c4)cc3)c2)N1 (stereo not drawn) |  | > 100 µM
31 | c1ccc2c(c1)CC1c3[nH]c4ccccc4c3CCN21 (stereo not drawn) |  | > 10 µM
32 | O=C1CCC2(CCC(=O)NC2=O)C(=O)N1 |  | > 100 µM
33 | CCCCn1cc(C(=O)O)c(=O)c2c3sccc3ccc21 |  | > 100 µM
34 | COc1cc[nH]c1/C=C1\C(=O)Nc2ccc(F)c(C#CC3(O)CCOCC3)c21 | 0.791 µM | > 7.68 µM
35 | COC(=O)C(C)N1C(=O)c2ccccc2I1OC(C)=O (stereo not drawn) | > 100 µM | > 100 µM
36 | COc1ccccc1C(=O)c1cnc(NC2CCN(S(C)(=O)=O)CC2)nc1N | 9.41 µM | > 25 µM
37 | Cc1ccc(NC(=O)CCC(=O)C2CC(=O)CC/C2=N\NC(=O)c2cc3ccccc3cc2O)cc1C (stereo not drawn) |  | > 100 µM
38 | COc1cc(C(=O)Nc2nnc(S(N)(=O)=O)s2)cc(OC)c1OC |  | > 100 µM
39 | CC1=NN(c2ccc(C)cc2)C2(C1)SCC(=O)N2c1nc2ccccc2s1 (stereo not drawn) |  | > 100 µM
40 | CC(=O)Oc1ccc2cc(Oc3ccc(Cl)cc3)c(=O)oc2c1 |  | > 100 µM
41 | O=C(c1cccs1)N(C(=S)N1CCN(c2ccccc2)CC1)c1ccccc1 |  | > 100 µM
42 | N#CC1c2ccccc2-c2ccccc2N1C(=O)c1ccccc1 (stereo not drawn) | 3.43 µM | > 57.6 µM
43 | Cc1ccc2c(c1)c(=O)c1c(NCCN(C)C)ccc3nnn2c31 |  | 8.1 µM
44 | Cc1ccc(-c2cc(-c3ccc(Cl)cc3)nc(/N=C3\C(=O)N(CN4CCCCC4)c4ccc(Cl)cc43)n2)cc1 |  | > 100 µM
45 | Cc1ccc(Nc2nc(=O)[nH]c(=O)[nH]2)cc1N |  | > 100 µM
46 | CC[C@]12C=CCN3CC[C@]4(C(=C(C(=O)OC)C1)Nc1cc(O)ccc14)[C@@H]32 | 18.1 µM | 46.7 µM
47 | O=C1CCSSCCC(=O)Nc2ccccc2N1 |  | > 100 µM
48 | COc1ccc(/C=C\c2cc(OC)c(OC)c(OC)c2)cc1OP(=O)(O)O |  | > 100 µM and 50 µM and > 88.8 µM
49 | CC1=C(C#N)C(N)=C2C(C)=C(C#N)C(N)=C12 |  | > 100 µM
50 | COC(=O)C(CC=O)C(=O)C(=O)Nc1cccc(C(F)(F)F)c1 (stereo not drawn) |  | > 100 µM

Row | Structure (SMILES) | GI50 | TGI
51 | O=C1OC(c2ccc(O)cc2)(c2ccc(O)cc2)c2cccc3cccc1c23 | 12.5 µM | 26.4 µM
52 | Cc1nc2c(n1Cc1ccc(Cl)cc1)C(=O)c1ccccc1C2=O |  | > 75 µM
53 | O=C1c2c(O)cccc2C(C(=O)CCCCC(=O)C2c3cccc(O)c3C(=O)c3c(O)cccc32)c2cccc(O)c21 | 1.45 µM | 3.28 µM and 6.39 µM
54 | CC(=O)NC1C(OCc2ccccc2)OC(COC(=O)CCCCCCCCCCNC(=O)c2cccc3c(=O)c4ccccc4[nH]c23)C(O)C1OC(C)C(=O)NC(C)C(=O)NC(CCC(N)=O)C(N)=O (stereo not drawn) |  | > 100 µM
55 | CC(C)OP(=O)(CP(=O)(OC(C)C)OC(C)C)OC(C)C.[CH3][Sn]([Br])([Br])[Br] | > 100 µM | > 100 µM
56 | O=C(CCCCCCCCC(=O)OCC1OC(n2cnc3c(=O)[nH]cnc32)C(O)C1O)OCC1OC(n2cnc3c(=O)[nH]cnc32)C(O)C1O (stereo not drawn) |  | > 100 µM
57 | Cc1cc(NS(=O)(=O)c2ccc(Nc3c4ccccc4nc4c(C(=O)NCCN(C)C)ccc(Cl)c34)cc2)no1 |  | 18.2 µM
58 | Cc1cc(S(=O)(=O)Nc2n[nH]c(Nc3ccccc3)n2)c(S)cc1Cl |  | > 10 µM
59 | CCN(CC)CCOc1ccc(/C=C2\C[C@H]3[C@@H]4CC=C5C[C@@H](OC(C)=O)CC[C@]5(C)[C@H]4CC[C@]3(C)[C@H]2OC(C)=O)cc1OC | 10.9 µM | 19.6 µM
60 | O=C1CCC2(CC1)Cc1ccccc1C2O (stereo not drawn) |  | > 100 µM
61 | CCCCc1ccc2[n+](c1)C(C(=O)OCC)=PC2 (stereo not drawn) |  | > 100 µM
62 | Cc1cc(N(CCC#N)S(=O)(=O)c2ccccc2)ccc1C=O |  | > 100 µM
63 | CC1CCC(O)C(C(O)CC2CC(=O)N(C)C(=O)C2)C1 (stereo not drawn) |  | > 100 µM
64 | Cc1cs/c(=N\C(P(=O)(O)O)P(=O)(O)O)n1C |  | > 100 µM
65 | COC(=O)c1cc(Nc2ccc(O)c3c2C(=O)c2c([N+](=O)[O-])ccc(O)c2C3=O)cc(C(=O)OC)c1 | 3.46 µM | 12.3 µM
66 | CCCCCCCCCCCCCCCC[N+]1(CC)CCCC1 | 1.75 µM | 4.36 µM
67 | CC(=O)N(C(C)=O)n1c(Cc2ccc(Cl)cc2)nn(C(C)=O)c1=O |  | > 100 µM
68 | CCCCCCCCCCCCOC1C(COCCN2CCCC2)OC2OC(C)(C)OC21 (stereo not drawn) |  | 23.2 µM
69 | CC(C)=CC(=O)O[C@@H]1CC(C)(C)CC2C3=CCC4[C@]56CC[C@](O)(OC5)C(C)(C)C6CC[C@@]4(C)C3(C)CC[C@]21C(=O)O (stereo partly drawn) |  | > 100 µM
70 | C=C(CCOC)CCC1CCCCC(=C)C1=O (stereo not drawn) |  | > 100 µM
71 | CCOC(=O)C1C(c2cc(OC)c(O)c(OC)c2)c2cc3c(cc2OC1(C)O)OCO3 (stereo not drawn) |  | > 100 µM
72 | CC(CC(=O)O)(CC(=O)O)C(=O)O |  | > 100 µM
73 | [N-]=[N+]=NC1(c2ccccc2)C(=O)Nc2ccccc2C1=O (stereo not drawn) |  | > 100 µM
74 | Cn1c(=O)c2c3oc(=O)cc(O)c3c(=O)n3c4ccccc4n(c1=O)c23 |  | > 100 µM
75 | CCOC(=O)/C=C1\Nc2ccccc2C12CCc1c([nH]c3ccccc13)C2C(=O)OCC (stereo not drawn) |  | > 100 µM

Row | Structure (SMILES) | GI50 | TGI
76 | COc1ccc([Se]c2ccc(OC)cc2OC)c(OC)c1 |  | > 100 µM
77 | O=C1C/C(=C\O)C(=O)c2ccccc2N1 |  | > 100 µM
78 | O=C1c2ccccc2-c2ccc(NC(=O)C3CCCCC3C(=O)O)cc21 (stereo not drawn) |  | > 100 µM
79 | CC(=O)[CH-]C(=O)c1ccccc1.CC(=O)[CH-]C(=O)c1ccccc1.[O]=[U+2]=[O] | 44.6 µM | > 100 µM
80 | CCOC(=O)C1C/C(C)=C(/C)SCCCS1 (stereo not drawn) |  | > 100 µM
81 | CO[C@H]1C=C[C@]23c4cc5c(cc4CN(CC2O)[C@@H]3C1)OCO5 (stereo partly drawn) |  | 34.1 µM
82 | O=C1OCC(C(=O)c2cccc(O)c2)C1=O (stereo not drawn) |  | > 100 µM
83 | CC(C)(C)n1cc(-c2ccnc(NCCNS(=O)(=O)c3ccc(Br)cc3)c2)c(-c2cccc(O)c2)n1 | 2.27 µM | 6.36 µM
84 | Oc1ccc(-c2c3c(nc4c2CCc2ccc(Br)cc2-4)-c2cc(Br)ccc2CC3)cc1 |  | 34.4 µM
85 | CCN(CC)c1ccc(C(=C2C=CC(=[N+](CC)CC)C=C2)c2ccc(N(CC)CC)cc2)cc1 |  | 1.25 µM
86 | O=C(N[C@@H]1CCCc2ccccc21)[C@H](CCC(=O)N1CCN(C2CCCCC2)CC1)N1C(=O)[C@@H](N2C(=O)OC[C@@H]2c2ccccc2)[C@H]1/C=C/c1ccccc1 | 1.33 µM | 52.7 µM
87 | CC1(C)N=C(N)N=C(N)N1c1ccc(OCC(=O)Nc2cccc(S(=O)(=O)F)c2)c(Cl)c1 |  | > 87 µM
88 | O=CNc1cccc2c3c([nH]c12)CCCCCC3 |  | > 100 µM
89 | COc1ccc2cccc(C(=N)c3ccc(C)c4c3CCC4)c2c1 |  | 24.5 µM
90 | COC(=O)/C(C#N)=C1\N=NNN1CCCN1CCOCC1 |  | > 100 µM
91 | COc1cc2ccn3c4cc(OC)c(OC)cc4cc3c2cc1OC |  | > 100 µM
92 | COc1cc2oc3ccccc3c(=O)c2cc1CSc1ccccc1N |  | > 87.1 µM
93 | O=c1oc(-c2ccc(O)c(O)c2)cc2cc(O)cc(O)c12 | 32 µM | > 100 µM
94 | CCCCCCCCCCCCCCCCP(=O)(O)OP(=O)(O)OCC1OC(n2ccc(N)nc2=O)C(O)C1O (stereo not drawn) |  | > 100 µM
95 | O=C1c2cc3c(cc2CC12Cc1cc4c(cc1C2)CCC4)CCC3 |  | > 100 µM
96 | Cc1nnc2n1N=C(CC(=O)c1ccc(O)cc1O)CN2N |  | > 100 µM
97 | COc1cc(S(=O)(=O)Nc2nc(-c3ccc(N4C(=O)/C(=C/c5ccccc5)N=C4c4ccccc4)cc3)cs2)ccc1Cl |  | > 100 µM
98 | O=C(Nc1cccc2nsnc12)c1cc2c(cc1Cl)Sc1nccn1S2(=O)=O |  | 6.24 µM
99 | Nc1ncnc2occ(-c3ccc(NC(=O)Nc4cc(C(F)(F)F)cc(C(F)(F)F)c4)cc3)c12 | 3.5 µM | 8.23 µM

— PubChem BioAssay (NCI)
